From PubChem BioAssay AID504832 (National Center for Advancing Translational Sciences (NCATS), 2011)
The whole screen tested about 310,000 compounds, of which about 18,000 (5.8%) were called active. Inconclusive results, whose numbers are uncertain, are shown with a selection of clear calls. The call rests on the fitted dose curve; in most records, active means well fitted inhibition curve with a large enough effect; inconclusive means small, poorly fitted or top-dose-only effect, or another doubt; inactive means no such curve, though single readings can be large or run the other way. No potency is given beside an inconclusive call; the fits are too rough.

Test: Primary qHTS for delayed death inhibitors of the malarial parasite plastid, 48 hour incubation
Conditions: P. falciparum luciferase growth in erythrocytes; series mostly up to 28.7 µM; activity change, negative = inhibition: at the top concentration
Outline: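 Read-out is firefly luciferase luminescence from an integrated reporter in P. falciparum, so falling signal marks reduced parasite growth. Infected erythrocytes were at 2% hematocrit and 0.1% parasitemia (final) in Albumax-supplemented RPMI 1640.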
On the % scale 0 is the no-effect control and ±100 the full control effect; potency means the concentration at half of the fitted maximal effect; tags describe the fitted curve by direction and shape.

Structure (SMILES) | Potency | activity change, negative = inhibition
Cc1ccc(Cn2nc(C)c(NC(=O)c3cc(-c4ccc5c(c4)OCO5)on3)c2C)cc1 | inconclusive [inhibitor, single point] | –
COc1cc(Cl)c(C)cc1NC(=O)Cc1ccc(OC)c(OC)c1 | inconclusive [inhibitor, full curve] | –
O=C(NCc1ccc(F)cc1)C1CCCN(S(=O)(=O)c2ccc(Br)s2)C1 (stereo unspecified) | inconclusive [inhibitor, single point] | –
CC(C)N(Cc1nc(-c2ccc(Cl)cc2)no1)Cc1nccn1C | inconclusive [inhibitor, single point] | –
CC(=O)Oc1ccc(N(C(C)=O)S(=O)(=O)c2ccc(C)cc2C)c2ccccc12 | active: 8.28 µM | –
Cc1noc(C)c1/C=N/Nc1ccccn1 | – | inactive: 115%
CCN(CC)c1ccc(-c2nn3c(-c4n[nH]c5c4CCC5)nnc3s2)cc1 | inconclusive [inhibitor, single point] | –
C=CCOc1ccc(C(=O)c2ccccc2)c(OCC(=O)NC2(C#N)CCCC2)c1 | inconclusive [inhibitor, single point] | –
CCCCCC(=O)O[C@]1(C(C)=O)CC[C@H]2[C@@H]3CCC4=CC(=O)CC[C@]4(C)[C@H]3CC[C@@]21C | active: 1.04 µM | –
CCCNC1=C(C)C(=O)C2=C(C1=O)C(COC(N)=O)[C@]1(OC)C3NC3CN21 (stereo partly specified) | active: 1.31 µM | –
CC(=C\C(=O)O)/C(=C\c1cccc2ccccc12)C(=O)O | inconclusive [inhibitor, full curve, poor fit] | –
CCCCC(=O)NC(c1cccs1)c1cc(Cl)c2cccnc2c1O (stereo unspecified) | active: 0.738 µM | –
O=C(CSc1nc2ccsc2c(=O)n1-c1ccccc1)N1CCCC1 | inconclusive [inhibitor, partial curve, poor fit] | –
NC1=NC(c2cccnc2)n2c(nc3ccccc32)N1 (stereo unspecified) | – | inactive: 0%
O=C(Nn1cnnc1)c1csc2ccccc12 | – | inactive: -2.83%
N#CC1=C(N)N(c2ccccc2)C(c2ccco2)C1(C#N)C#N (stereo unspecified) | inconclusive [inhibitor, single point] | –
COc1ccc(C2=Nn3c(nnc3-c3ccco3)SC2)cc1OC | inconclusive [inhibitor, partial curve, poor fit] | –
CCOc1ccccc1NC(=O)Cc1ccccc1OC | inconclusive [inhibitor, partial curve] | –
COc1ccc(NC(=O)c2sc3nc(N4CCCC4)c4c(c3c2N)CC(C)(C)OC4)cc1 | active: 13.1 µM | –
CCCC(=O)Nc1nnc(SCC(=O)N2CCCCC2)s1 | – | inactive: 7.27%
CCOC(=O)c1ccc(NC(=S)NC2CC(C)(C)NC(C)(C)C2)cc1 | inconclusive [inhibitor, partial curve] | –
COc1ccc(CNC(=O)C2(CC3CC(c4ccccc4)=NO3)CCN(C(=O)C3CCCC3)CC2)cc1 (stereo unspecified) | inconclusive [inhibitor, full curve] | –
COC(=O)c1ccc2nc(C)cc(Nc3ccccc3C)c2c1 | inconclusive [inhibitor, single point] | –

Structure (SMILES) | Potency | activity change, negative = inhibition
CCc1nnc(NC(=O)c2cc(S(=O)(=O)N3CCCCC3)ccc2C)s1 | inconclusive [inhibitor, single point] | –
CCOCCOC(=O)C1=C(C)N(C)C(=O)NC1c1cc(Cl)c(O)c(OCC)c1 (stereo unspecified) | inconclusive [inhibitor, partial curve, poor fit] | –
Cc1ccsc1/C=N/NC(=O)c1cccc(S(=O)(=O)Nc2ccccc2Cl)c1 | – | inactive: 17%
COc1ccc(NC(=O)C2CCCN(CCCc3ccccc3)C2)cc1OCC(C)C (stereo unspecified) | inconclusive [inhibitor, single point] | –
CC(C)NC(=O)COc1coc(CN2CCN(Cc3ccccc3)CC2)cc1=O | – | inactive: 5.92%
Cc1ccccc1NS(=O)(=O)c1ccc(C(=O)NCC(c2ccco2)N2CCCCC2)cc1 (stereo unspecified) | inconclusive [inhibitor, single point] | –
Cc1cc(=O)[nH]c(/N=C(\N)Nc2cccc3ccccc23)n1 | – | inactive: -1.58%
COc1ccc(OC)c(C(=O)Cn2c3[n+](c4ccc(C(F)(F)F)cc42)CCCCC3)c1 | inconclusive [inhibitor, full curve] | –
COc1ccc(/C=C2\Sc3ccc(C(=O)N4CCCC4)cc3N(C)C2=O)cc1OC | active: 2.33 µM | –
N=c1oc2ccccc2cc1C(=O)NC1CCCCCC1 | inconclusive [inhibitor, partial curve, poor fit] | –
Clc1ccc2c(c1)C(N1CCNCC1)Cc1ccccc1S2 (stereo unspecified) | active: 10.4 µM | –
CS(=O)(=O)N(CC(=O)Nc1c(F)cccc1F)Cc1ccccc1 | – | inactive: -11.4%
C/C(=N/NC(=O)c1ccc(Br)o1)c1ccncc1 | – | inactive: 50.7%
CCOc1cc(CNCc2cccs2)cc(Br)c1OCC | inconclusive [inhibitor, single point] | –
O=C(Nc1cccc(NC(=O)c2ccc3c(c2)OCO3)c1)c1ccccc1 | – | inactive: 28.7%
COc1ccccc1C(=O)NC(=O)COC(=O)c1cnc(C)cn1 | – | inactive: 2.36%
CCCCNC(=O)N1CCCC(C(=O)c2cc(C)c(OC)c(C)c2)C1 (stereo unspecified) | – | inactive: 32%
CC(C)Sc1nc2c(c(=O)n(C)c(=O)n2C)n1Cc1ccc(Cl)cc1 | inconclusive [inhibitor, full curve] | –
Cc1cc(OCCOCCN(C)CCO)cc(C)c1Cl | inconclusive [inhibitor, full curve, poor fit] | –
O=S(=O)(c1ccc(F)c2ccccc12)N1CCCCC1 | inconclusive [inhibitor, single point] | –
COc1ccc(CCNC(=O)C2CCN(c3nn4c(=O)cc(C)nc4s3)CC2)cc1OC | inconclusive [inhibitor, partial curve] | –
O=C(c1ccc(S(=O)(=O)Nc2ccccc2F)cc1)N1CCN(c2ccccc2O)CC1 | inconclusive [inhibitor, single point] | –
COc1ccc(CN2CCC(C(=O)Nc3ccc(Oc4ccccc4)nc3)CC2)cc1F | inconclusive [inhibitor, partial curve] | –
